Laboratory results: publication PMC7156261 (Journal of medicinal chemistry, 2019)

Biological target: TEM-1 β-lactamase R164S (Escherichia coli, UniProt P62593, R162S)
Test: DSF shift in Tm after incubation with moxalactam, R164S
Type: binding
Details: R164S (printed R163S), 100-fold molar excess moxalactam

CO[C@@]1(NC(=O)[C@H](C(=O)O)c2ccc(O)cc2)C(=O)N2C(C(=O)O)=C(CSc3nnnn3C)CO[C@@H]21 [moxalactam]
destabilization (lowering of Tm): 3.3 °C
